{"source": "ChEMBL document CHEMBL4888484", "about": "“Replenishing the malaria drug discovery pipeline: Screening and hit evaluation of the MMV Hit Generation Library 1 (HGL1) against asexual blood stage Plasmodium falciparum ,using a nano luciferase reporter read-out” (2022)", "note": "About 540 (0.36%) of roughly 150,000 compounds showed an effect of 50% or more. This is one part of the list."}
{"tested_on": "Plasmodium falciparum", "test": "Primary screen in NF54 nanoGlo assay, in single point, at 2uM, 72h; a lower Z score goes with more inhibition", "format": "functional, Erythrocyte", "conditions": "timepoint 72 hour", "units": {"% Inhibition": "%"}}
{"smiles": "NC(=O)CN1CCC(NC(=O)C2CCCC(C(F)(F)F)C2)CC1", "note": "(stereo unspecified)", "% Inhibition": -5, "Z score": 0.57}
{"smiles": "COc1ccc(NC(=O)c2ccc(S(=O)(=O)Nc3ccc(C)c(C)c3)cc2)c(S(=O)(=O)N2CCCCC2)c1", "% Inhibition": -11, "Z score": 1.46}
{"smiles": "Nc1nc(CNC(=O)COC[C@H]2CCCCO2)cs1", "% Inhibition": 0, "Z score": 0.05}
{"smiles": "CN(C)c1ccccc1NC(=O)Nc1cn[nH]c1", "% Inhibition": 5, "Z score": -0.53}
{"smiles": "CN(CCCCc1ccccc1)C(=O)Nc1nncs1", "% Inhibition": -7, "Z score": 1.25}
{"smiles": "Cc1nc(-c2cnc3ccccn3c2=O)n(CCCO)n1", "% Inhibition": -6, "Z score": 0.8}
{"smiles": "COc1cccc(CN2CC[C@H](Cc3nnc(CC(C)C)o3)C2)c1OC", "% Inhibition": 8, "Z score": -1.1}
{"smiles": "COc1cc(CC(=O)Nc2[nH]nc(-c3ccc(C)o3)c2C)ccn1", "% Inhibition": -10, "Z score": 1.28}
{"smiles": "O=S(=O)(N1CCCCC1)N1CC2CCCC2C1", "note": "(stereo unspecified)", "% Inhibition": -9, "Z score": 0.98}
{"smiles": "CCN(Cc1ccc(OC)c(F)c1)CC(O)COC1CCCc2ccccc21", "note": "(stereo unspecified)", "% Inhibition": -11, "Z score": 1.25}
{"smiles": "CCN(CC)CC(=O)N[C@@H](C)Cc1cnccn1", "% Inhibition": -3, "Z score": 0.44}
{"smiles": "COc1ccccc1CNC(=O)c1ccc(Cn2c(=O)c3ccccc3n(Cc3ccc(F)cc3)c2=O)cc1", "% Inhibition": -1, "Z score": 0.06}
{"smiles": "Cc1ccc([C@@H]2Cn3nnc(C(=O)N4CCC(C(=O)NCC(C)C)CC4)c3CO2)cc1", "% Inhibition": -23, "Z score": 2.14}
{"smiles": "Cc1cc(Cl)c2c(c1)[C@@H](N(Cc1nnc(C)o1)C1CC1)CCCO2", "% Inhibition": -2, "Z score": 0.26}
{"smiles": "N#Cc1ccc(OCCCN2CCC[C@H](Cn3cncn3)C2)cc1", "% Inhibition": -10, "Z score": 1.47}
{"smiles": "COC(=O)c1ccc(N2CCC(C)CC2C)nn1", "note": "(stereo unspecified)", "% Inhibition": 3, "Z score": -0.3}
{"smiles": "Cc1ccc(NCc2cnnn2C)c(C)n1", "% Inhibition": -13, "Z score": 2}
{"smiles": "COCCc1ccnc(NC(=O)N2CCCS(=O)(=O)C[C@@H]2C)c1", "% Inhibition": -6, "Z score": 1.16}
{"smiles": "CN(CCn1cccn1)C(=O)CN1C[C@@H](Cc2ccccc2)CC1=O", "% Inhibition": 12, "Z score": -2.03}
{"smiles": "Nc1nc(CC(=O)NCc2ccccc2F)n[nH]1", "% Inhibition": -11, "Z score": 1.96}
{"smiles": "Cc1csc(Cn2nc3ccc(C(C)(C)C)nn3c2=O)n1", "% Inhibition": -9, "Z score": 1.96}
{"smiles": "CO[C@H]1[C@@H]2CC[C@H]1CN(Cc1ccccc1C(=O)O)C2", "% Inhibition": -4, "Z score": 0.86}
{"smiles": "CCCS(=O)(=O)N1CCC[C@H]1c1noc(COCC)n1", "% Inhibition": -7, "Z score": 0.92}
{"smiles": "CO[C@H]1COC[C@@H]1NC(=O)c1sccc1Cl", "% Inhibition": -9, "Z score": 1.78}
{"smiles": "COc1ccc(CC(=O)N2CC[C@H](O)CC23CCC3)nc1", "% Inhibition": -10, "Z score": 1}
{"smiles": "CCOC(=O)c1c(S(=O)(=O)N2CCC(C(=O)NC(C)(C)C)CC2)c(C)n(C)c1C", "% Inhibition": 0, "Z score": 0.05}
{"smiles": "O=C(O)C12CCC(C(=O)NCC3(C4(O)CCC4)CC3)(CC1)CC2", "% Inhibition": 7, "Z score": -1.02}
{"smiles": "C[C@@H](c1nc(COc2cccc(F)c2)n[nH]1)N1CCCCC1", "% Inhibition": -11, "Z score": 2.09}
{"smiles": "Cc1oc(-c2cc(F)cc(F)c2)nc1Cn1cccn1", "% Inhibition": -9, "Z score": 1.45}
{"smiles": "COCc1nc(C)cc(N[C@@H](COC)C2CCOCC2)n1", "% Inhibition": -2, "Z score": 0.34}
{"smiles": "CCc1cnccc1C(=O)NC1CC12CCOc1ccccc12", "note": "(stereo unspecified)", "% Inhibition": -17, "Z score": 1.78}
{"smiles": "Cc1ccccc1OCC(=O)N[C@H]1CN(S(C)(=O)=O)C[C@@H]1C1CC1", "% Inhibition": -7, "Z score": 1.23}
{"smiles": "CCN1C[C@@H](c2ccccc2)CC2(CCN(c3cc(C)ncn3)CC2)C1", "% Inhibition": -10, "Z score": 1.12}
{"smiles": "Cc1ccc(C)c(S(=O)(=O)NC[C@H](C)O)c1", "% Inhibition": -5, "Z score": 0.52}
{"smiles": "COc1ccc(-c2cc(NC(=O)c3oc4cc(C)cc(C)c4c3C)on2)cc1OC", "% Inhibition": -1, "Z score": 0.1}
{"smiles": "COCC[C@H]1CCCCN1C(=O)c1cn(CCC2CCCCC2)nn1", "% Inhibition": -19, "Z score": 2.83}
{"smiles": "COc1cc2c(cc1OC)CN(C(=O)[C@@H](C)Cn1cncn1)CC2", "% Inhibition": 4, "Z score": -0.52}
{"smiles": "CCOc1cc(C(=O)N2CCO[C@@H](COc3ccc(Cl)c(C)c3)C2)ccc1OC", "% Inhibition": 3, "Z score": -0.38}
{"smiles": "CC1(C)CN(C(=O)Cn2cnc(C#N)n2)CC2(CCCC2)O1", "% Inhibition": -9, "Z score": 1.14}
{"smiles": "COc1ccc(C(=O)N2CCC3(CC2)NC(=O)c2cc(F)ccc2N3C)c(OC)c1", "% Inhibition": -2, "Z score": 0.22}
{"smiles": "CCCCn1c(N)c(N2CCOCC2)c(=O)n(CC(=O)Nc2cccc(F)c2)c1=O", "% Inhibition": 8, "Z score": -1.22}
{"smiles": "COc1ccc(S(=O)(=O)N[C@H]2CCOC2=O)c2c1CCCC2", "% Inhibition": 4, "Z score": -0.56}
{"smiles": "CCc1nc(OC)ccc1NC(=O)N1CCC[C@H]1c1cn(C)nc1C", "% Inhibition": -3, "Z score": 0.62}
